Laboratory results from the supplement of paper PMC12217912.
The list shows a part of the results. The full chains were built here from the parent and the listed change. Values near 0.05 are background.

B1: TEV protease; numbered along this chain (parent)
chain: MGESLFKGPRDYNPISSSICHLTNESDGHTTSLYGIGFGPFIITNKHLFRRNNGTLVVQSLHGVFKVKDTTTLQQHLVDGRDMIIIRMPKDFPPFPQKLKFREPQREERICLVTTNFQTKSMSSMVSDTSCTFPSGDGIFWKHWIQTKDGQCGSPLVSTRDGFIVGIHSASNFTNTNNYFTSVPKNFMELLTNQEAQQWVSGWRLNADSVLWGGHKVFMVKPEEPFQPVKEATQL

Variants of: B1
Experiment: raw area under fraction-flipped curve 0-4 h after induction (AUC4h, not background-subtracted), DNA-recorder readout of cleavage of the substrate (dimensionless); higher = more cleavage of the substrate by the protease variant
Conditions: temperature: 34 °C; time window: 0-4 h after rhamnose induction
Protocol: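 In vivo DNA recorder in E. coli TOP10(DE3) ΔrhaA at 34 °C. Each TEVp single-site mutant (parent TEVp 0) is paired with a single-site variant of the 7-mer TEVs (canonical ENLYFQ|S). The substrate sits between flexible linkers in a Bxb1-sfGFP-TEVs-SsrA fusion, so cleavage stabilises Bxb1 and speeds flipping of a recombination array, read by NGS. The value is the raw area under the fraction-flipped curve over 0-4 h after rhamnose induction (AUC4h), with ≥20 reads per time point. It is not background-subtracted; inactive controls average about 0.047.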
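Note: Bxb1 expression induced with 0.2% (w/v) L-rhamnose at OD600 near 0.5, cultures sampled hourly, flipped fraction per protease–substrate barcode pair counted by paired-end Illumina sequencing.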

Variant | area with substrate ENLYFQA | area with substrate ENLYFQD | area with substrate ENLYFQH | area with substrate ENLYFQI | area with substrate ENLYFQK | area with substrate ENLYFQL | area with substrate ENLYFQM | area with substrate ENLYFQN | area with substrate ENLYFQP | area with substrate ENLYFQQ
L211N | 0.133 | 0.0896 | 0.0983 | 0.0571 | 0.0697 | 0.0583 | 0.11 | 0.0974 | 0.0725 | 0.0925
G213H | 0.0652 |  | 0.0559 |  |  | 0.0562 |  |  |  | 
H215K | 0.0753 |  |  |  | 0.0615 | 0.059 |  | 0.0376 | 0.0655 | 
H215S | 0.0598 |  |  |  |  |  |  |  |  | 
V217L | 0.0834 |  |  |  |  |  |  |  | 0.0567 | 0.0547
F218V | 0.0904 | 0.0537 | 0.064 | 0.0373 | 0.17 |  | 0.0675 | 0.0681 |  | 0.0632
V220S | 0.0954 |  | 0.0849 | 0.0492 | 0.0654 | 0.0499 | 0.0899 |  | 0.0597 | 
F226V | 0.103 |  | 0.0638 |  |  |  | 0.0867 | 0.121 |  | 
Q227D | 0.148 | 0.0922 | 0.103 | 0.0599 |  | 0.0654 |  | 0.0946 | 0.0624 | 0.0737
P228W | 0.124 |  | 0.0951 | 0.0624 |  | 0.06 |  | 0.0724 |  | 
K230A | 0.098 |  | 0.0849 |  | 0.061 |  |  |  |  | 
E231I | 0.122 | 0.0708 |  | 0.0517 | 0.049 | 0.0614 | 0.087 |  | 0.0665 | 
L235C | 0.0862 |  | 0.0686 |  |  |  | 0.0546 |  | 0.0561 | 
L235T | 0.102 | 0.0777 |  |  | 0.0553 | 0.0589 |  | 0.0753 |  | 
G2I |  | 0.0986 | 0.112 |  |  | 0.0449 | 0.124 | 0.109 |  | 
E3D |  |  |  | 0.0579 | 0.0653 |  |  |  | 0.07 | 
E3V |  |  |  | 0.0442 |  | 0.0605 | 0.113 | 0.0865 | 0.0838 | 
F6N |  |  | 0.0738 |  | 0.0518 |  |  | 0.0734 |  | 

Variant | area with substrate ENLYFQA | area with substrate ENLYFQD | area with substrate ENLYFQH | area with substrate ENLYFQI | area with substrate ENLYFQK | area with substrate ENLYFQL | area with substrate ENLYFQM | area with substrate ENLYFQN | area with substrate ENLYFQP | area with substrate ENLYFQQ
K7H |  | 0.0768 |  |  |  |  |  |  |  | 
K7V |  | 0.0879 | 0.0617 | 0.0524 |  | 0.0635 |  |  |  | 0.0622
G8L |  |  |  |  |  | 0.059 | 0.103 |  |  | 
D11T |  |  | 0.0767 | 0.0534 |  |  |  |  |  | 
Y12R |  |  |  | 0.0542 | 0.0654 | 0.0545 | 0.0739 | 0.0871 |  | 
S18G |  | 0.0772 | 0.0681 | 0.05 | 0.0506 | 0.0464 | 0.08 | 0.0732 | 0.0919 | 0.0727
T30D |  |  |  |  | 0.0676 |  |  | 0.077 |  | 
Y34H |  | 0.0982 |  | 0.0526 |  |  |  |  |  | 
G35S |  |  |  |  |  |  | 0.0775 |  |  | 
N53L |  | 0.0945 |  |  |  | 0.0509 |  | 0.0662 |  | 
V58L |  |  |  |  |  | 0.0653 |  |  |  | 
V58S |  | 0.0618 | 0.07 |  |  | 0.0387 |  | 0.0807 |  | 
Q59R |  |  |  | 0.0654 |  |  |  | 0.0959 | 0.0526 | 
S60G |  |  | 0.12 |  |  |  | 0.0758 |  |  | 
S60W |  | 0.0695 | 0.0944 | 0.0577 | 0.0525 |  | 0.133 | 0.0688 | 0.0697 | 
L61T |  | 0.0819 |  |  | 0.0709 |  | 0.0585 |  | 0.0621 | 
F65I |  |  | 0.0734 | 0.0648 |  |  |  | 0.0775 |  | 
V67G |  |  |  |  | 0.032 |  | 0.0323 | 0.048 |  | 

Same assay, conditions: temperature: 34 °C; time window: 0-4 h after rhamnose induction

Variant | area with substrate ENLYFQR | area with substrate ENLYFQS | area with substrate ENLYFQT | area with substrate ENLYFQW | area with substrate ENLYFQY | area with substrate ENLYFQC | area with substrate ENLYFQF | area with substrate ENLYFQV | area with substrate ENLYFQG | area with substrate ENLYFQE
L211N | 0.0747 | 0.128 | 0.0417 | 0.0482 | 0.0865 |  |  |  |  | 
G213H | 0.0618 | 0.0702 | 0.0676 |  | 0.0587 |  |  |  |  | 
H215K | 0.047 | 0.0764 | 0.0696 | 0.0602 | 0.0447 | 0.0777 |  |  |  | 
H215S | 0.0439 | 0.0572 |  |  |  |  |  |  |  | 
V217L |  | 0.0918 |  |  |  |  |  |  |  | 
F218V |  | 0.097 | 0.0637 | 0.0578 |  | 0.0785 | 0.0538 | 0.0484 |  | 
V220S | 0.0653 | 0.11 | 0.0678 | 0.0656 |  |  |  |  | 0.0992 | 
F226V |  | 0.114 | 0.0825 | 0.0709 |  |  |  |  |  | 
Q227D | 0.056 | 0.124 | 0.0562 | 0.0762 | 0.0532 | 0.119 |  | 0.066 | 0.132 | 
P228W | 0.0687 | 0.0967 | 0.0681 |  |  |  |  | 0.0766 |  | 0.0725
K230A | 0.0581 | 0.0993 | 0.0608 | 0.0711 |  |  | 0.0744 |  |  | 
E231I | 0.0557 | 0.0993 | 0.0606 |  | 0.059 |  |  | 0.0754 | 0.0724 | 
L235C | 0.0519 | 0.0934 | 0.0825 |  | 0.0581 | 0.0877 |  | 0.0741 |  | 
L235T | 0.0696 | 0.113 |  |  |  |  | 0.101 |  | 0.0714 | 
G2I | 0.0502 | 0.15 |  | 0.0453 |  | 0.167 |  | 0.0497 |  | 
E3D | 0.0519 | 0.117 |  | 0.0855 | 0.0792 | 0.134 |  | 0.0624 | 0.128 | 0.06
E3V | 0.0561 | 0.155 | 0.0555 | 0.088 |  | 0.17 |  |  | 0.137 | 
F6N |  | 0.0771 | 0.0643 | 0.0551 |  | 0.0999 |  |  |  | 

Variant | area with substrate ENLYFQR | area with substrate ENLYFQS | area with substrate ENLYFQT | area with substrate ENLYFQW | area with substrate ENLYFQY | area with substrate ENLYFQC | area with substrate ENLYFQF | area with substrate ENLYFQV | area with substrate ENLYFQG | area with substrate ENLYFQE
K7H | 0.0657 | 0.107 |  | 0.0725 |  | 0.141 |  |  |  | 
K7V | 0.0735 | 0.0698 | 0.06 | 0.0489 |  | 0.0849 |  |  |  | 0.0617
G8L |  | 0.103 |  |  | 0.0692 | 0.132 |  |  |  | 
D11T |  | 0.108 |  | 0.0621 |  | 0.145 |  |  | 0.0854 | 
Y12R | 0.0662 | 0.102 | 0.0637 | 0.0584 |  | 0.0973 |  |  |  | 
S18G | 0.0551 | 0.0957 |  | 0.0525 | 0.064 | 0.0937 |  | 0.0508 | 0.115 | 
T30D | 0.0482 | 0.0952 | 0.0925 | 0.061 | 0.0698 | 0.0836 | 0.0582 | 0.0608 |  | 
Y34H |  | 0.101 |  | 0.0642 |  | 0.121 |  |  | 0.0998 | 
G35S | 0.0327 | 0.0777 |  |  |  | 0.0764 | 0.0651 |  | 0.0679 | 
N53L | 0.0573 | 0.0895 | 0.0516 | 0.0602 | 0.109 | 0.101 | 0.0793 |  |  | 
V58L | 0.06 | 0.0947 |  |  | 0.071 | 0.109 |  |  |  | 
V58S |  | 0.0829 | 0.0537 | 0.0474 | 0.0592 | 0.0897 | 0.0696 | 0.0576 | 0.0835 | 
Q59R | 0.0629 | 0.112 | 0.0434 |  |  | 0.118 | 0.0668 | 0.0641 | 0.112 | 
S60G | 0.0464 | 0.0924 | 0.0567 | 0.0678 |  | 0.0842 |  | 0.0603 |  | 
S60W | 0.0618 | 0.0957 | 0.0629 | 0.0665 | 0.0799 | 0.125 | 0.0822 |  | 0.0728 | 
L61T | 0.0754 | 0.0983 |  |  | 0.0679 | 0.118 |  |  |  | 
F65I |  | 0.0825 | 0.0585 |  | 0.0731 | 0.105 |  |  |  | 
V67G |  | 0.0625 | 0.0547 | 0.0536 |  | 0.059 |  |  | 0.0739 | 
